Assay results reported in PubChem BioAssay AID624296 (National Center for Advancing Translational Sciences (NCATS), 2012).
In all, about 350,000 compounds went through this assay and about 9,900 (2.8%) were called active. The shares of active, inactive and inconclusive entries below differ from those in the screen. Calls come from the whole dose curve; as a rule, active = well fitted activation curve with a large enough effect; inconclusive = small, poorly fitted or top-dose-only effect; inactive = no such curve, though single readings can be large or run the other way. Potencies of inconclusive entries are left out as doubtful fits.

Assay: A quantitative high throughput screen for small molecules that induce DNA re-replication in MCF 10a normal breast cells. Note: nearly all actives have a fitted effect of over 50% in size.
Conditions: MCF 10A DNA re-replication, Hoechst nuclear intensity, 48 h; series mostly up to 46.1 µM
Potency is the fitted concentration of half-maximal effect; tags give direction and shape of the fitted curve.

SMILES | Potency
Cc1ccc(NC(=O)CSCC(N)=O)cc1C | inconclusive [activator, partial curve]
CN(Cc1ccc(Cl)cc1)C(=O)COC(=O)c1ccc(-c2ccc(O)cc2)cc1 | inconclusive [activator, single point]
O=c1cnnc(N/N=C/c2ccc3c(c2)OCO3)[nH]1 | inactive
O=C1CCCc2c1cnc1ncnn21 | inconclusive [activator, full curve, poor fit]
CC(Oc1ccccc1Cl)C(=O)N1CCCN(C)CC1 (stereo unspecified) | inconclusive [activator, single point]
CCOC(=O)N1CCC(NS(=O)(=O)c2ccc3c(c2)CCN3C(C)=O)CC1 | inactive
O=C(CC1SC(=Nc2ccc(OC(F)F)cc2)N(CCC2=CCCCC2)C1=O)Nc1ccccc1F (stereo unspecified) | inconclusive [activator, single point]
Cn1c(NCc2ccccc2)nc2c1c(=O)n(Cc1ccc(Br)cc1)c(=O)n2C | inconclusive [activator, single point]
O=C(COc1ccc(Br)cc1F)NCC1(N2CCCCC2)CCCCC1 | inconclusive [activator, single point]
C(=N\Nc1ccc2ccccc2n1)/c1ccc2c(c1)OCO2 | inconclusive [activator, single point]
O=C(Nc1sc2c(c1-c1nc3ccccc3[nH]1)CCCC2)C1CC1 | inconclusive [activator, single point]
CCOc1ccccc1C(=O)N(CN1CCCC1=O)c1cccc(Cl)c1 | inactive
OCCNc1ncnc2ccc(Br)cc12 | inactive
O=[N+]([O-])c1cc(S(=O)(=O)C(F)(F)F)ccc1N1CCN(c2ccccc2)CC1 | inactive
Cc1ccc(NC(=O)/C=C/c2ccc3c(c2)OCO3)nc1 | inconclusive [activator, partial curve, poor fit]
O=C(O)C1CC=CCC1C(=O)N1CCN(c2nc(-c3ccccc3Cl)c3cc(Br)ccc3n2)CC1 (stereo unspecified) | active: 23.1 µM
c1ccc(CNc2nc(-c3cccs3)nc3ccccc23)cc1 | inconclusive [activator, partial curve, poor fit]
Cc1ccc(NS(=O)(=O)c2cccc(C(=O)NCC(c3ccco3)N3CCCC3)c2)cc1 (stereo unspecified) | active: 11.6 µM
CCCC(=O)NC(c1ccccc1)c1c(O)ccc2ccccc12 (stereo unspecified) | inactive
Clc1ccc(Cn2c(/C=C/c3ccco3)nc3ccccc32)cc1 | active: 20.6 µM
O=C(Nc1ccc(C(F)(F)F)cc1)c1cc(-c2cccnc2)nc2ccc(Br)cc12 | active: 5.17 µM
